Experimental findings from the supplement of paper PMC4604168 (melanoma cell lines) are described below.

The other results are listed elsewhere or left out. Repeats are few or missing, and single values can be far off.
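Further: cell number obtained by counting DAPI-stained nuclei in high-throughput microscope images with image analysis software, screen run in 1,536-well plates.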

One assay has as its system WM1745. As to the kind of experiment: cell count relative to DMSO control; melanoma cells; higher = more viable cells. The note with it: library dose: low library concentration; 72 h.
As to `Nc1ncn([C@H]2C[C@H](O)[C@@H](CO)O2)c(=O)n1` [decitabine] + COc1ccc(-c2ccc3c(N4CCOCC4)nc(N4C[C@@H](C)O[C@@H](C)C4)nc3n2)cc1CO [KU0063794] (first compound 0.1 µM, partner dose 0.02 µM), the cell count worked out at 83.8%.

Turning to `Nc1ccn([C@@H]2O[C@H](CO)[C@@H](O)C2(F)F)c(=O)n1` [gemcitabine] + CC1(C)NC(=O)N(c2ccc([N+](=O)[O-])c(C(F)(F)F)c2)C1=O [nilutamide] (first compound 0.0004 µM, partner dose 1 µM), the cell count worked out at 79.1%.

As to `CC(=O)c1c(C)c2cnc(Nc3ccc(N4CCNCC4)cn3)nc2n(C2CCCC2)c1=O` [palbociclib] + CC(C)(C)c1cnc(CSc2cnc(NC(=O)C3CCNCC3)s2)o1 [SNS-032] (first compound 0.04 µM, partner dose 0.01 µM), the cell count came out at 73.7%. Still for that read-out and setting: for `Nc1ccn([C@@H]2O[C@H](CO)[C@@H](O)C2(F)F)c(=O)n1` [gemcitabine] + Cc1ccc(NC(=O)c2cccc(N(C)C)c2)cc1NC(=O)c1ccc(O)cc1 [ZM336372] (first compound 0.0004 µM, partner dose 2 µM) the value was 78.5%.

The test system of another assay is WM3526. The assay is described as above. Particulars: library dose: low library concentration; 72 h.
The compound `CC(=O)O[C@@]12CO[C@@H]1C[C@H](O)[C@@]1(C)C(=O)[C@H](O)C3=C(C)[C@@H](OC(=O)[C@H](O)[C@@H](NC(=O)OC(C)(C)C)c4ccccc4)C[C@@](O)([C@@H](OC(=O)c4ccccc4)[C@H]21)C3(C)C` [Docetaxel] + CN(NC(=O)CC(=O)NN(C)C(=S)c1ccccc1)C(=S)c1ccccc1 [STA4783] (first compound 0.0001 µM, partner dose 0.006 µM) displayed a cell count of 30.2%. The same measure, in the same setting: for `CC(=O)O[C@@]12CO[C@@H]1C[C@H](O)[C@@]1(C)C(=O)[C@H](O)C3=C(C)[C@@H](OC(=O)[C@H](O)[C@@H](NC(=O)OC(C)(C)C)c4ccccc4)C[C@@](O)([C@@H](OC(=O)c4ccccc4)[C@H]21)C3(C)C` [Docetaxel] + Cc1ccc(NC(=O)c2cccc(N(C)C)c2)cc1NC(=O)c1ccc(O)cc1 [ZM336372] (first compound 0.0001 µM, partner dose 2 µM) the value was 39.6%; for `Nc1ncn([C@H]2C[C@H](O)[C@@H](CO)O2)c(=O)n1` [decitabine] + CO[C@@H]1[C@H](N(C)C(=O)c2ccccc2)C[C@H]2O[C@]1(C)n1c3ccccc3c3c4c(c5c6ccccc6n2c5c31)C(=O)NC4 [Midostaurin] (first compound 0.1 µM, partner dose 0.08 µM), 100%. On the same count and under the same terms, under `Nc1ccn([C@@H]2O[C@H](CO)[C@@H](O)C2(F)F)c(=O)n1` [gemcitabine] + CCc1ccc(CCOc2ccc(CC3SC(=O)NC3=O)cc2)nc1 [pioglitazone] (first compound 0.0004 µM, partner dose 2 µM) stands 106%; under `CC(=O)c1c(C)c2cnc(Nc3ccc(N4CCNCC4)cn3)nc2n(C2CCCC2)c1=O` [palbociclib] + C=CCn1c(=O)c2cnc(Nc3ccc(N4CCN(C)CC4)cc3)nc2n1-c1cccc(C(C)(C)O)n1 [MK1775] (first compound 0.04 µM, partner dose 0.02 µM), 54.5%; under `CC(=O)c1c(C)c2cnc(Nc3ccc(N4CCNCC4)cn3)nc2n(C2CCCC2)c1=O` [palbociclib] + Oc1cc(-c2nc(-c3ccccc3)[nH]c2-c2ccncc2)ccc1Cl [L779450] (first compound 0.04 µM, partner dose 0.2 µM), 53%. `Nc1ncn([C@H]2C[C@H](O)[C@@H](CO)O2)c(=O)n1` [decitabine] + c1cc(-c2cnn3cc(-c4ccc(OCCN5CCCCC5)cc4)cnc23)ccn1 [Dorsomorphin] (first compound 0.1 µM, partner dose 0.4 µM) gave a cell count of 88.7%. The same measure, in the same setting: under `Nc1ncn([C@H]2C[C@H](O)[C@@H](CO)O2)c(=O)n1` [decitabine] + O=C(Nc1ccccc1)c1cc([N+](=O)[O-])ccc1Cl [GW9662] (first compound 0.1 µM, partner dose 2 µM) stands 83.2%; under `Nc1ncn([C@H]2C[C@H](O)[C@@H](CO)O2)c(=O)n1` [decitabine] + O=C(Nc1cccc(Cl)c1)Nc1ncc(CCNc2ncnc3ccsc23)s1 [SNS314] (first compound 0.1 µM, partner dose 0.0008 µM), 85.3%.
